Publication PMC6204899
These are yes or no findings as the source states them, for the method shown. In cells and extracts the contact can be indirect. Some results given as binding are weak or reduced against the parent protein; the word gives no strength. For part of these data: Sequences can lack the tags named with a protein.

Tests used:
[1] = biological target: T1, ARGONAUTE1 (Arabidopsis thaliana (endogenous in seedlings)) (UniProt O04379); assay: co-IP; AGO1 antibody IP from soluble fractions (100,000 x g supernatant, NaCl added to 150 mM and Nonidet P-40 to 0.5%), noncross-linked 16-day-old seedlings; same amount of AGO1 precipitated as from microsomal fractions
T1 sequence: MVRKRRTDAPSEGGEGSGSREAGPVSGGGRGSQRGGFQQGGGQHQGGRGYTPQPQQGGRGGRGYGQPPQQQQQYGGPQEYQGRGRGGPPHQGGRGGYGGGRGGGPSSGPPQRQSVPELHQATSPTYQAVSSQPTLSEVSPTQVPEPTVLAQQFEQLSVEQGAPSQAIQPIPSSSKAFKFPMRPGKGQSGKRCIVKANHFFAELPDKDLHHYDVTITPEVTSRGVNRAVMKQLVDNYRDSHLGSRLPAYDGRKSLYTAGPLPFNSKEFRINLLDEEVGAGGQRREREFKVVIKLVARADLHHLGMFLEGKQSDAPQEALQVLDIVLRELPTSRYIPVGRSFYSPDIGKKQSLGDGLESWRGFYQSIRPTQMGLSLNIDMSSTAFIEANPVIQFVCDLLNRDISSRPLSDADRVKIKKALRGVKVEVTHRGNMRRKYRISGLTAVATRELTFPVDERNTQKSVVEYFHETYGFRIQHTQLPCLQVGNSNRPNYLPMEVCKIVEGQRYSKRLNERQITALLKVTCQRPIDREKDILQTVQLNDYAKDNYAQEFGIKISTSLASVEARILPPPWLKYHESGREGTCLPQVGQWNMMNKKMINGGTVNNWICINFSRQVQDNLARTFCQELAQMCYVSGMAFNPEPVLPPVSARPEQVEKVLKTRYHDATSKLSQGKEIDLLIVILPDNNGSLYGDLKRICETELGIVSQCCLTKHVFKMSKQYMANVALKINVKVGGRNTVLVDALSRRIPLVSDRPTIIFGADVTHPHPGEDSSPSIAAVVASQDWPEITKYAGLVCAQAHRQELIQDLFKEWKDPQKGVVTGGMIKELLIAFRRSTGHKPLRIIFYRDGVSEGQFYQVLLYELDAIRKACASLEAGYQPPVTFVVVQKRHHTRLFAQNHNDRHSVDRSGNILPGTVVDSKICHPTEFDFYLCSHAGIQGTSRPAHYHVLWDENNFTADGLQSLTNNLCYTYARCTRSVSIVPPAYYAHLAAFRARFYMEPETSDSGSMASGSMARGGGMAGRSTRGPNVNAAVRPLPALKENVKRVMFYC

[2] = biological target: T1, ARGONAUTE1 (Arabidopsis thaliana (endogenous in seedlings)); assay: co-IP; AGO1 antibody IP from deoxycholate-solubilized microsome (membrane) fractions of seedlings, formaldehyde cross-linked or untreated; IP buffer 50 mM Tris/HCl pH 7.5, 150 mM NaCl, 10% glycerol, 5 mM MgCl2, 0.1% Nonidet P-40; 4 °C; blots with J2/J3, AGO1 and HSP90 antibodies; for comparison of genotypes inputs adjusted to equal recovery of AGO1
[3] = substrate: T2, N terminally 2×FLAG-2×haemagglutinin (FHA)-tagged J3 (Arabidopsis) (UniProt Q94AW8); assay: co-IP; anti-FLAG M2 affinity gel IP from deoxycholate-solubilized membrane fractions of the FHA-J3 transgenic line, noncross-linked 16-day-old seedlings; FLAG peptide elution; mock: Col-0
T2 sequence: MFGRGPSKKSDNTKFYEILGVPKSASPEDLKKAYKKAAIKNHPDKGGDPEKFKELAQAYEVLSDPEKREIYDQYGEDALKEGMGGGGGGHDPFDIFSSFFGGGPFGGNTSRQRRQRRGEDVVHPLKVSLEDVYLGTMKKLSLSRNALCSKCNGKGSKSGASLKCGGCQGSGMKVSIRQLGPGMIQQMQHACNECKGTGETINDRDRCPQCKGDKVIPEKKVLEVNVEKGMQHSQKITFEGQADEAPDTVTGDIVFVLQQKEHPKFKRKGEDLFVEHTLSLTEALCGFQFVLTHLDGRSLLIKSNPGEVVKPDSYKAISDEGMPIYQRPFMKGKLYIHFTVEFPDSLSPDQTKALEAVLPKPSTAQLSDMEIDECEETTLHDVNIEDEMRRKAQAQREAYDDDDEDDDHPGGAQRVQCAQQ

B1: J3 (farnesylated heat shock protein 40 homolog) (protein, UniProt Q94AW8 1-420)
chain: MFGRGPSKKSDNTKFYEILGVPKSASPEDLKKAYKKAAIKNHPDKGGDPEKFKELAQAYEVLSDPEKREIYDQYGEDALKEGMGGGGGGHDPFDIFSSFFGGGPFGGNTSRQRRQRRGEDVVHPLKVSLEDVYLGTMKKLSLSRNALCSKCNGKGSKSGASLKCGGCQGSGMKVSIRQLGPGMIQQMQHACNECKGTGETINDRDRCPQCKGDKVIPEKKVLEVNVEKGMQHSQKITFEGQADEAPDTVTGDIVFVLQQKEHPKFKRKGEDLFVEHTLSLTEALCGFQFVLTHLDGRSLLIKSNPGEVVKPDSYKAISDEGMPIYQRPFMKGKLYIHFTVEFPDSLSPDQTKALEAVLPKPSTAQLSDMEIDECEETTLHDVNIEDEMRRKAQAQREAYDDDDEDDDHPGGAQRVQCAQQ
modifications: farnesylated in planta (C-terminal CAAX motif; J3 farnesylation site C417)
- binding [1]: no binding (condition: in soluble fractions)
- binding [2]: binds

B2: ARGONAUTE1 (protein, UniProt O04379 1-1048)
chain: MVRKRRTDAPSEGGEGSGSREAGPVSGGGRGSQRGGFQQGGGQHQGGRGYTPQPQQGGRGGRGYGQPPQQQQQYGGPQEYQGRGRGGPPHQGGRGGYGGGRGGGPSSGPPQRQSVPELHQATSPTYQAVSSQPTLSEVSPTQVPEPTVLAQQFEQLSVEQGAPSQAIQPIPSSSKAFKFPMRPGKGQSGKRCIVKANHFFAELPDKDLHHYDVTITPEVTSRGVNRAVMKQLVDNYRDSHLGSRLPAYDGRKSLYTAGPLPFNSKEFRINLLDEEVGAGGQRREREFKVVIKLVARADLHHLGMFLEGKQSDAPQEALQVLDIVLRELPTSRYIPVGRSFYSPDIGKKQSLGDGLESWRGFYQSIRPTQMGLSLNIDMSSTAFIEANPVIQFVCDLLNRDISSRPLSDADRVKIKKALRGVKVEVTHRGNMRRKYRISGLTAVATRELTFPVDERNTQKSVVEYFHETYGFRIQHTQLPCLQVGNSNRPNYLPMEVCKIVEGQRYSKRLNERQITALLKVTCQRPIDREKDILQTVQLNDYAKDNYAQEFGIKISTSLASVEARILPPPWLKYHESGREGTCLPQVGQWNMMNKKMINGGTVNNWICINFSRQVQDNLARTFCQELAQMCYVSGMAFNPEPVLPPVSARPEQVEKVLKTRYHDATSKLSQGKEIDLLIVILPDNNGSLYGDLKRICETELGIVSQCCLTKHVFKMSKQYMANVALKINVKVGGRNTVLVDALSRRIPLVSDRPTIIFGADVTHPHPGEDSSPSIAAVVASQDWPEITKYAGLVCAQAHRQELIQDLFKEWKDPQKGVVTGGMIKELLIAFRRSTGHKPLRIIFYRDGVSEGQFYQVLLYELDAIRKACASLEAGYQPPVTFVVVQKRHHTRLFAQNHNDRHSVDRSGNILPGTVVDSKICHPTEFDFYLCSHAGIQGTSRPAHYHVLWDENNFTADGLQSLTNNLCYTYARCTRSVSIVPPAYYAHLAAFRARFYMEPETSDSGSMASGSMARGGGMAGRSTRGPNVNAAVRPLPALKENVKRVMFYC
- binding [3]: binds

B3: J3 in era1 farnesyl transferase mutants (not farnesylated) (protein, UniProt Q94AW8 1-420)
chain: MFGRGPSKKSDNTKFYEILGVPKSASPEDLKKAYKKAAIKNHPDKGGDPEKFKELAQAYEVLSDPEKREIYDQYGEDALKEGMGGGGGGHDPFDIFSSFFGGGPFGGNTSRQRRQRRGEDVVHPLKVSLEDVYLGTMKKLSLSRNALCSKCNGKGSKSGASLKCGGCQGSGMKVSIRQLGPGMIQQMQHACNECKGTGETINDRDRCPQCKGDKVIPEKKVLEVNVEKGMQHSQKITFEGQADEAPDTVTGDIVFVLQQKEHPKFKRKGEDLFVEHTLSLTEALCGFQFVLTHLDGRSLLIKSNPGEVVKPDSYKAISDEGMPIYQRPFMKGKLYIHFTVEFPDSLSPDQTKALEAVLPKPSTAQLSDMEIDECEETTLHDVNIEDEMRRKAQAQREAYDDDDEDDDHPGGAQRVQCAQQ
- binding [2]: binds

B4: J3^WT expressed in j2/j3 double knockout background (protein, UniProt Q94AW8 1-420)
chain: MFGRGPSKKSDNTKFYEILGVPKSASPEDLKKAYKKAAIKNHPDKGGDPEKFKELAQAYEVLSDPEKREIYDQYGEDALKEGMGGGGGGHDPFDIFSSFFGGGPFGGNTSRQRRQRRGEDVVHPLKVSLEDVYLGTMKKLSLSRNALCSKCNGKGSKSGASLKCGGCQGSGMKVSIRQLGPGMIQQMQHACNECKGTGETINDRDRCPQCKGDKVIPEKKVLEVNVEKGMQHSQKITFEGQADEAPDTVTGDIVFVLQQKEHPKFKRKGEDLFVEHTLSLTEALCGFQFVLTHLDGRSLLIKSNPGEVVKPDSYKAISDEGMPIYQRPFMKGKLYIHFTVEFPDSLSPDQTKALEAVLPKPSTAQLSDMEIDECEETTLHDVNIEDEMRRKAQAQREAYDDDDEDDDHPGGAQRVQCAQQ
- binding [2]: binds

B5: J3^C417S, farnesylation-deficient point mutant, expressed in j2/j3 double knockout background (protein, UniProt Q94AW8 1-420)
chain: MFGRGPSKKSDNTKFYEILGVPKSASPEDLKKAYKKAAIKNHPDKGGDPEKFKELAQAYEVLSDPEKREIYDQYGEDALKEGMGGGGGGHDPFDIFSSFFGGGPFGGNTSRQRRQRRGEDVVHPLKVSLEDVYLGTMKKLSLSRNALCSKCNGKGSKSGASLKCGGCQGSGMKVSIRQLGPGMIQQMQHACNECKGTGETINDRDRCPQCKGDKVIPEKKVLEVNVEKGMQHSQKITFEGQADEAPDTVTGDIVFVLQQKEHPKFKRKGEDLFVEHTLSLTEALCGFQFVLTHLDGRSLLIKSNPGEVVKPDSYKAISDEGMPIYQRPFMKGKLYIHFTVEFPDSLSPDQTKALEAVLPKPSTAQLSDMEIDECEETTLHDVNIEDEMRRKAQAQREAYDDDDEDDDHPGGAQRVQSAQQ
- binding [2]: binds
